Laboratory results as given in the supplement of paper PMC3334620.
Over roughly 33,000 sequences, “E-score (-0.5 to 0.5)” has its median near -0.017; the highest 2% begin near 0.3. Some of the results follow.

Target: T1, Sut1 (UniProt P53032)
T1 sequence: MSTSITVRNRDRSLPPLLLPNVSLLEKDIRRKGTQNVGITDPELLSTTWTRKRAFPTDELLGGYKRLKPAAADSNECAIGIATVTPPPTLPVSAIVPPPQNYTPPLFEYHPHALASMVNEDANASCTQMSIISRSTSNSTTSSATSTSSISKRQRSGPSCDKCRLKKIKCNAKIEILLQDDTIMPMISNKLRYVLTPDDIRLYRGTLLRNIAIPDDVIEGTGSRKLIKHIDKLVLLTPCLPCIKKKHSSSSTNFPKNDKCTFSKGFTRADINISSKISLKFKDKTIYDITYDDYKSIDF
Test: PBM E-score (8-mer binding enrichment) (E-score (-0.5 to 0.5)); higher = stronger / more preferred TF binding; most listed sequences are background and not binding sites
Details: protein concentration: 200 nM; construct: GST-full length
Procedure: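 Universal 'all 10-mer' protein binding microarrays (Agilent AMADID 015681) probed with GST-tagged S. cerevisiae TFs (full-length or DBD) made by in vitro transcription/translation (PURExpress), about 100-200 nM. Bound TF was detected with fluorescent anti-GST. Each ungapped 8-mer (which stands for itself and its reverse complement) is scored by the PBM enrichment score (E-score), a modified Wilcoxon-Mann-Whitney statistic from -0.5 to +0.5, computed with the Universal PBM Analysis Suite. Scale: above 0.35 generally sequence-specific binding.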

Sequence | PBM E-score
AGACCTTA | -0.0293
TATAATAA | 0.298
TTTCCAAA | 0.133
AGATTACG | 0.0898
CCAATGGG | -0.286
GTTGATGA | 0.111
ACTCATGA | 0.0472
CATTCTCA | 0.102
TATATAAA | 0.248
ACCTCACC | 0.0629
AATTTATG | 0.225
GATTTTGA | 0.235
CACGGCCG | -0.241
CATACGCA | -0.0732
AGGACGAC | -0.0915
ACTCGCGC | -0.144
ATCTCTTC | 0.0425
GAGAGTTA | -0.0175
CGAAAATA | 0.197
CCATTACC | -0.101
AGATCAGC | -0.0817
CATCCGCA | 0.0523

Sequence | PBM E-score
CGACGACG | -0.151
CTTTATTA | 0.261
TGGGTCAA | -0.129
AGGCAAGA | -0.109
AAACTTAT | 0.254
CACGTTCC | -0.288
ATGAAGCG | -0.174
CATCTAGC | -0.0138
ACCGGTTC | -0.219
CAAGCTAG | -0.215
CGCGACGA | -0.0132
AGAGTAGA | 0.163
AGGTCGCC | -0.122
CAAACACA | 0.0213
CAATTGAG | -0.109
CTGCTTGC | -0.13
GCCTAGGA | -0.122
ACACCCCG | -0.0228
GCCCCGCA | -0.223
CGGCTTTA | 0.0621
ACAGCACA | 0.0156
ACCTGTCT | -0.0847

Sequence | PBM E-score
AACTAACG | 0.177
ATCTGTAA | 0.139
ACTTAGCT | -0.227
GCGAGAAC | 0.0447
TACGGCCA | -0.0907
AGTCGACC | -0.115
GCATCCGA | -0.0329
ATGGGCAG | -0.15
CCAAACGA | -0.00041
CCCGAAGA | -0.0672
CGATCGGC | -0.00869
GGACTAAA | 0.21
AATCAGAG | -0.0426
AAAGTCGC | 0.191
AACAGTAG | -0.083
CGCCCCTA | -0.264
GTAACACA | 0.074
CGGACTGA | 0.298
CGTACTGA | 0.0987
CAAGAGAA | 0.0231
ACGACGTC | -0.0917
AAGCCCCA | -0.302

Sequence | PBM E-score
ATTTTCTG | 0.158
ACGGAGCT | 0.386
AGCAAGTC | 0.0391
ATAACTGC | 0.119
ATCTATCG | -0.00359
GTCATTGA | 0.109
AAATCGGA | 0.397
GATTCTAA | 0.00592
ACCGCACA | -0.299
AAAGGCTA | -0.129
ACCTATTC | -0.0369
GCGTCACA | -0.2
CCTCCAAA | -0.121
ACGTCGGC | -0.135
AGTAAGAG | 0.00975
TAAACTGA | 0.114
AACATAGG | -0.087
CACACCGC | -0.262
ACAAGGGA | -0.249
ACGCTCGA | -0.161
GCTGCGCA | -0.203
AGTTGTAG | 0.126

Sequence | PBM E-score
AGCGGCCT | -0.177
AGCTGACA | -0.039
CCGTATTC | 0.127
GCTAAGTA | 0.0422
CCTTTGCA | -0.0712
CACGCGTC | 0.084
GGGTAACA | -0.151
ATATAATA | 0.284
CGCCATGC | -0.0469
AGAGGTCA | -0.285
CACGGGGC | -0.0112
CGCCGTGA | -0.16
GGGGGACA | -0.234
CGCCTTAA | -0.126
CGTGGAAG | -0.166
GGACCTAA | 0.245
CATTCACG | -0.00457
GGTGTGGA | 0.0142
ATCACTTC | 0.14
CCCTTAAC | -0.247
AGACCCTC | -0.206
